The list shows a part of the results. The list includes weakly bound sequences.
Molecular target: T1, MBP-FoxP3dN (UniProt Q99JB6)
T1 sequence: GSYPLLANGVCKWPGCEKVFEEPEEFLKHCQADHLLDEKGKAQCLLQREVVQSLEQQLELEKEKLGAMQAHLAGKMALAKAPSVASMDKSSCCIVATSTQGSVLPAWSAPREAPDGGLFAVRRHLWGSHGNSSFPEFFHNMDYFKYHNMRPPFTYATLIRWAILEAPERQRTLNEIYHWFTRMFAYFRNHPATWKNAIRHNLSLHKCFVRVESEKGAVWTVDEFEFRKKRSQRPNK
Test: PD-seq (MBP pull-down with sequencing)
Conditions: 20 mM Tris-HCl pH 7.5, 100 mM NaCl, 1.5 mM MgCl2, 0.4 uM protein, 0.1 uM dsDNA library, 30 min, room temperature, amylose pull-down; high values mean tight binding; double strand, one strand shown

| Sequence | binding signal (RPM ratio (pull-down/input)) |
| --- | --- |
| GATGATTGTTCTCCCAGCTGATGAATTCACGTGATCGAGTAAACAAATTTTCCTAATCTTTCTGTTCAAGCGCCATCTAC | 0.356 |
| GATGATTGTTCTCCCAGCTGATGAATTCTCTAATTCGAGTAAACAAATTTTCCTAATCTTTCTGTTCAAGCGCCATCTAC | 0.248 |
| GATGATTGTTCTCCCAGCTGATGAATTGTCTTCCTCGAGTAAACAAATTTTCCTAATCTTTCTGTTCAAGCGCCATCTAC | 0.391 |
| GATGATTGTTCTCCCAGCTGATGAATTCAATTGTTCGAGTAAACAAATTTTCCTAATCTTTCTGTTCAAGCGCCATCTAC | 3.36 |
| GATGATTGTTCTCCCAGCTGATGAATTCATGAAATCGAGTAAACAAATTTTCCTAATCTTTCTGTTCAAGCGCCATCTAC | 0.289 |
| GATGATTGTTCTCCCAGCTGATGAATTGGCCATGTCGAGTAAACAAATTTTCCTAATCTTTCTGTTCAAGCGCCATCTAC | 0.522 |
| GATGATTGTTCTCCCAGCTGATGAATTGTTGACTTCGAGTAAACAAATTTTCCTAATCTTTCTGTTCAAGCGCCATCTAC | 4.19 |
| GATGATTGTTCTCCCAGCTGATGAATTCACTAACTCGAGTAAACAAATTTTCCTAATCTTTCTGTTCAAGCGCCATCTAC | 0.304 |
| GATGATTGTTCTCCCAGCTGATGAATTCTTTGTCTCGAGTAAACAAATTTTCCTAATCTTTCTGTTCAAGCGCCATCTAC | 0.413 |
| GATGATTGTTCTCCCAGCTGATGAATTAATGAAGTCGAGTAAACAAATTTTCCTAATCTTTCTGTTCAAGCGCCATCTAC | 0.213 |
| GATGATTGTTCTCCCAGCTGATGAATTTTCGGAATCGAGTAAACAAATTTTCCTAATCTTTCTGTTCAAGCGCCATCTAC | 0.225 |
| GATGATTGTTCTCCCAGCTGATGAATTCGTCGATTCGAGTAAACAAATTTTCCTAATCTTTCTGTTCAAGCGCCATCTAC | 0.371 |
| GATGATTGTTCTCCCAGCTGATGAATTTTGAACGTCGAGTAAACAAATTTTCCTAATCTTTCTGTTCAAGCGCCATCTAC | 0.378 |
| GATGATTGTTCTCCCAGCTGATGAATTGAATACTTCGAGTAAACAAATTTTCCTAATCTTTCTGTTCAAGCGCCATCTAC | 0.488 |
| GATGATTGTTCTCCCAGCTGATGAATTGAGTCAGTCGAGTAAACAAATTTTCCTAATCTTTCTGTTCAAGCGCCATCTAC | 0.366 |
| GATGATTGTTCTCCCAGCTGATGAATTATACATATCGAGTAAACAAATTTTCCTAATCTTTCTGTTCAAGCGCCATCTAC | 0.795 |
| GATGATTGTTCTCCCAGCTGATGAATTACTGGGCTCGAGTAAACAAATTTTCCTAATCTTTCTGTTCAAGCGCCATCTAC | 0.26 |
| GATGATTGTTCTCCCAGCTGATGAATTTGTCTTATCGAGTAAACAAATTTTCCTAATCTTTCTGTTCAAGCGCCATCTAC | 3.64 |
| GATGATTGTTCTCCCAGCTGATGAATTTTAAGCTTCGAGTAAACAAATTTTCCTAATCTTTCTGTTCAAGCGCCATCTAC | 0.253 |
| GATGATTGTTCTCCCAGCTGATGAATTAACTAACTCGAGTAAACAAATTTTCCTAATCTTTCTGTTCAAGCGCCATCTAC | 0.278 |
| GATGATTGTTCTCCCAGCTGATGAATTGAATGGATCGAGTAAACAAATTTTCCTAATCTTTCTGTTCAAGCGCCATCTAC | 0.298 |

| Sequence | binding signal (RPM ratio (pull-down/input)) |
| --- | --- |
| GATGATTGTTCTCCCAGCTGATGAATTGGCGCGTTCGAGTAAACAAATTTTCCTAATCTTTCTGTTCAAGCGCCATCTAC | 1.44 |
| GATGATTGTTCTCCCAGCTGATGAATTCGTTCAGTCGAGTAAACAAATTTTCCTAATCTTTCTGTTCAAGCGCCATCTAC | 0.271 |
| GATGATTGTTCTCCCAGCTGATGAATTGGCTCCTTCGAGTAAACAAATTTTCCTAATCTTTCTGTTCAAGCGCCATCTAC | 0.297 |
| GATGATTGTTCTCCCAGCTGATGAATTTGAGGTATCGAGTAAACAAATTTTCCTAATCTTTCTGTTCAAGCGCCATCTAC | 0.815 |
| GATGATTGTTCTCCCAGCTGATGAATTCTATCCATCGAGTAAACAAATTTTCCTAATCTTTCTGTTCAAGCGCCATCTAC | 0.458 |
| GATGATTGTTCTCCCAGCTGATGAATTGTGTCAATCGAGTAAACAAATTTTCCTAATCTTTCTGTTCAAGCGCCATCTAC | 1.11 |
| GATGATTGTTCTCCCAGCTGATGAATTCCATCAATCGAGTAAACAAATTTTCCTAATCTTTCTGTTCAAGCGCCATCTAC | 0.327 |
| GATGATTGTTCTCCCAGCTGATGAATTGTTGGTCTCGAGTAAACAAATTTTCCTAATCTTTCTGTTCAAGCGCCATCTAC | 4.36 |
| GATGATTGTTCTCCCAGCTGATGAATTCGCTATGTCGAGTAAACAAATTTTCCTAATCTTTCTGTTCAAGCGCCATCTAC | 1.16 |
| GATGATTGTTCTCCCAGCTGATGAATTCACGCAGTCGAGTAAACAAATTTTCCTAATCTTTCTGTTCAAGCGCCATCTAC | 0.848 |
| GATGATTGTTCTCCCAGCTGATGAATTTGCCGGTTCGAGTAAACAAATTTTCCTAATCTTTCTGTTCAAGCGCCATCTAC | 0.543 |
| GATGATTGTTCTCCCAGCTGATGAATTATGTGATTCGAGTAAACAAATTTTCCTAATCTTTCTGTTCAAGCGCCATCTAC | 4.32 |
| GATGATTGTTCTCCCAGCTGATGAATTCCATGCGTCGAGTAAACAAATTTTCCTAATCTTTCTGTTCAAGCGCCATCTAC | 0.688 |
| GATGATTGTTCTCCCAGCTGATGAATTCATCGCGTCGAGTAAACAAATTTTCCTAATCTTTCTGTTCAAGCGCCATCTAC | 0.63 |
| GATGATTGTTCTCCCAGCTGATGAATTGGTGGAGTCGAGTAAACAAATTTTCCTAATCTTTCTGTTCAAGCGCCATCTAC | 0.38 |
| GATGATTGTTCTCCCAGCTGATGAATTGCTGGGCTCGAGTAAACAAATTTTCCTAATCTTTCTGTTCAAGCGCCATCTAC | 0.399 |
| GATGATTGTTCTCCCAGCTGATGAATTTGGGAGCTCGAGTAAACAAATTTTCCTAATCTTTCTGTTCAAGCGCCATCTAC | 0.275 |
| GATGATTGTTCTCCCAGCTGATGAATTTAGGTATTCGAGTAAACAAATTTTCCTAATCTTTCTGTTCAAGCGCCATCTAC | 1.37 |
| GATGATTGTTCTCCCAGCTGATGAATTCGAAGTATCGAGTAAACAAATTTTCCTAATCTTTCTGTTCAAGCGCCATCTAC | 0.441 |
| GATGATTGTTCTCCCAGCTGATGAATTGGCAAAATCGAGTAAACAAATTTTCCTAATCTTTCTGTTCAAGCGCCATCTAC | 0.254 |
| GATGATTGTTCTCCCAGCTGATGAATTAAGCATCTCGAGTAAACAAATTTTCCTAATCTTTCTGTTCAAGCGCCATCTAC | 6.6 |

| Sequence | binding signal (RPM ratio (pull-down/input)) |
| --- | --- |
| GATGATTGTTCTCCCAGCTGATGAATTGGCTCGGTCGAGTAAACAAATTTTCCTAATCTTTCTGTTCAAGCGCCATCTAC | 0.268 |
| GATGATTGTTCTCCCAGCTGATGAATTGATAACGTCGAGTAAACAAATTTTCCTAATCTTTCTGTTCAAGCGCCATCTAC | 0.445 |
| GATGATTGTTCTCCCAGCTGATGAATTCCGTCGTTCGAGTAAACAAATTTTCCTAATCTTTCTGTTCAAGCGCCATCTAC | 0.747 |
| GATGATTGTTCTCCCAGCTGATGAATTCCTTCTCTCGAGTAAACAAATTTTCCTAATCTTTCTGTTCAAGCGCCATCTAC | 0.225 |
| GATGATTGTTCTCCCAGCTGATGAATTCACTGACTCGAGTAAACAAATTTTCCTAATCTTTCTGTTCAAGCGCCATCTAC | 0.233 |
| GATGATTGTTCTCCCAGCTGATGAATTCGGATGTTCGAGTAAACAAATTTTCCTAATCTTTCTGTTCAAGCGCCATCTAC | 0.89 |
| GATGATTGTTCTCCCAGCTGATGAATTCGTGCCATCGAGTAAACAAATTTTCCTAATCTTTCTGTTCAAGCGCCATCTAC | 2.18 |
| GATGATTGTTCTCCCAGCTGATGAATTGCAACTATCGAGTAAACAAATTTTCCTAATCTTTCTGTTCAAGCGCCATCTAC | 4.55 |
| GATGATTGTTCTCCCAGCTGATGAATTGGCTTGGTCGAGTAAACAAATTTTCCTAATCTTTCTGTTCAAGCGCCATCTAC | 1.08 |
| GATGATTGTTCTCCCAGCTGATGAATTACTAACATCGAGTAAACAAATTTTCCTAATCTTTCTGTTCAAGCGCCATCTAC | 2.2 |
| GATGATTGTTCTCCCAGCTGATGAATTCAAAGCATCGAGTAAACAAATTTTCCTAATCTTTCTGTTCAAGCGCCATCTAC | 0.742 |
| GATGATTGTTCTCCCAGCTGATGAATTTCAGGTATCGAGTAAACAAATTTTCCTAATCTTTCTGTTCAAGCGCCATCTAC | 0.479 |
| GATGATTGTTCTCCCAGCTGATGAATTTCACAAGTCGAGTAAACAAATTTTCCTAATCTTTCTGTTCAAGCGCCATCTAC | 0.232 |
| GATGATTGTTCTCCCAGCTGATGAATTGTCGGTTTCGAGTAAACAAATTTTCCTAATCTTTCTGTTCAAGCGCCATCTAC | 0.597 |
| GATGATTGTTCTCCCAGCTGATGAATTTGAAGGGTCGAGTAAACAAATTTTCCTAATCTTTCTGTTCAAGCGCCATCTAC | 0.388 |
| GATGATTGTTCTCCCAGCTGATGAATTCTGTCCATCGAGTAAACAAATTTTCCTAATCTTTCTGTTCAAGCGCCATCTAC | 0.788 |
| GATGATTGTTCTCCCAGCTGATGAATTTCCGTGTTCGAGTAAACAAATTTTCCTAATCTTTCTGTTCAAGCGCCATCTAC | 0.509 |
| GATGATTGTTCTCCCAGCTGATGAATTATCCTCCTCGAGTAAACAAATTTTCCTAATCTTTCTGTTCAAGCGCCATCTAC | 0.291 |
| GATGATTGTTCTCCCAGCTGATGAATTACAACGATCGAGTAAACAAATTTTCCTAATCTTTCTGTTCAAGCGCCATCTAC | 0.511 |
| GATGATTGTTCTCCCAGCTGATGAATTATGGTCCTCGAGTAAACAAATTTTCCTAATCTTTCTGTTCAAGCGCCATCTAC | 0.559 |
| GATGATTGTTCTCCCAGCTGATGAATTCCCCTTCTCGAGTAAACAAATTTTCCTAATCTTTCTGTTCAAGCGCCATCTAC | 0.258 |
